The results in this text go back to PMC8141066.

Protein sequences, listed by entry. Tags and fused reporters are not part of them.
UniProt O94973: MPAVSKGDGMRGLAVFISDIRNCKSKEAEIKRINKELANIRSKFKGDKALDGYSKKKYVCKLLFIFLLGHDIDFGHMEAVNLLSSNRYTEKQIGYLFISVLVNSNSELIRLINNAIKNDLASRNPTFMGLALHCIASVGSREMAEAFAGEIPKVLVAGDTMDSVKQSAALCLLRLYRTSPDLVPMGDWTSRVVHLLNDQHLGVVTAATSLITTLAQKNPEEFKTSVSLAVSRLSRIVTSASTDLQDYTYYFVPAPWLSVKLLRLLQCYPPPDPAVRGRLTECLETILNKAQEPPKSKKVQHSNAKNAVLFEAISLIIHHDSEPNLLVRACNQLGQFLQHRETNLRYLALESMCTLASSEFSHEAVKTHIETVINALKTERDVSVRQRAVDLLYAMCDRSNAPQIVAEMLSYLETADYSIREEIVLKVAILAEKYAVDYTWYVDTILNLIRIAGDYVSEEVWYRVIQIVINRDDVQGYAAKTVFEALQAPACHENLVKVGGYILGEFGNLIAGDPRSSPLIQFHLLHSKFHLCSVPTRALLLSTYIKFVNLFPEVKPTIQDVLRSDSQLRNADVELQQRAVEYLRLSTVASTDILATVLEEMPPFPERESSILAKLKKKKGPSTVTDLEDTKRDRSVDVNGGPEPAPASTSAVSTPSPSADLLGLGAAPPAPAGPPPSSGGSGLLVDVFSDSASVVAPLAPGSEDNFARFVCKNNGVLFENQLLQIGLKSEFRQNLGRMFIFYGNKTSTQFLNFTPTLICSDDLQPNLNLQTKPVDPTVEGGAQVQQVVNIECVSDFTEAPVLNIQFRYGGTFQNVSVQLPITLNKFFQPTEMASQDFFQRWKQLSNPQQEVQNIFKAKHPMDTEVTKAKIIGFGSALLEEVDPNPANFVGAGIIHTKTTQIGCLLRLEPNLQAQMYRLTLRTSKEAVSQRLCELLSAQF
UniProt Q00610: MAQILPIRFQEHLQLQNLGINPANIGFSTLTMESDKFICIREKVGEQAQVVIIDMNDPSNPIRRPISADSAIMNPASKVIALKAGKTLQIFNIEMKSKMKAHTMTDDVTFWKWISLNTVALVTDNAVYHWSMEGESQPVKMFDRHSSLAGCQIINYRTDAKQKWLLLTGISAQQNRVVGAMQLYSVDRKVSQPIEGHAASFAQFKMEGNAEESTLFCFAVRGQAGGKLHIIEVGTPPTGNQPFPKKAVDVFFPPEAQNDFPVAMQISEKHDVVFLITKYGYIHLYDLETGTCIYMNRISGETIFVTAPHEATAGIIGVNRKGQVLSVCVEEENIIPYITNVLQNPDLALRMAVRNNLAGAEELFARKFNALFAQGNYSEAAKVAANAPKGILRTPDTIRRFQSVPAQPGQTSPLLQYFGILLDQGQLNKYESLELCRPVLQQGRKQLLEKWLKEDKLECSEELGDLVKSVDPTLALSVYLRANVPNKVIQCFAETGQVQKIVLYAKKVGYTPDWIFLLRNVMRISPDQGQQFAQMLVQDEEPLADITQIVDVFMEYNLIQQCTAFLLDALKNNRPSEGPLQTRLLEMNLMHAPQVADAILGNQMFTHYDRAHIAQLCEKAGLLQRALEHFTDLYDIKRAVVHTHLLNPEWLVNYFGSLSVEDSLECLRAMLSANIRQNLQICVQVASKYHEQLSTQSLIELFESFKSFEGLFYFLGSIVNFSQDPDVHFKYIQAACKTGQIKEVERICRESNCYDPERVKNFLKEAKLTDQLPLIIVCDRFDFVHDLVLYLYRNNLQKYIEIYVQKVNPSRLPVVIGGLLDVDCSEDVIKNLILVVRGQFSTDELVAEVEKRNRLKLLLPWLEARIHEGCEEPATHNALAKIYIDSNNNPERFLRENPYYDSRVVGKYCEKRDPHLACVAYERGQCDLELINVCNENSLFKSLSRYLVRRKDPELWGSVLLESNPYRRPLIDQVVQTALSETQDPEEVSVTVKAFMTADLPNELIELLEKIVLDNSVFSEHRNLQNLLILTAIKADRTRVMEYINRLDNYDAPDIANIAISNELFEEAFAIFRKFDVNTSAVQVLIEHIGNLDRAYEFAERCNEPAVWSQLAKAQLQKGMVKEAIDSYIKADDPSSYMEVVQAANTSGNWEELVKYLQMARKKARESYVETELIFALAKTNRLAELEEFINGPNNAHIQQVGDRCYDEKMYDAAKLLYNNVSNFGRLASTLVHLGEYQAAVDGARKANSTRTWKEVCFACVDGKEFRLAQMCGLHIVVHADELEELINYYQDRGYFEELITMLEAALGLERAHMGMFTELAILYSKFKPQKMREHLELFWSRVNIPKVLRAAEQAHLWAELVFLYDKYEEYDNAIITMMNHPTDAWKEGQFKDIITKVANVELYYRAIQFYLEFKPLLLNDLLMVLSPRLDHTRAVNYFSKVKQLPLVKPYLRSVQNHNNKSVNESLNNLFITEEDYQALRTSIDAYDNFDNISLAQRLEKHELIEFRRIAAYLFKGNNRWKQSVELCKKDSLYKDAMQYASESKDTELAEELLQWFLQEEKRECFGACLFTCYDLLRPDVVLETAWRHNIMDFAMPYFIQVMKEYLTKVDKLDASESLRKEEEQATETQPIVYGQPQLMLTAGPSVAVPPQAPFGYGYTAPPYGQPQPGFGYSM
UniProt O00443: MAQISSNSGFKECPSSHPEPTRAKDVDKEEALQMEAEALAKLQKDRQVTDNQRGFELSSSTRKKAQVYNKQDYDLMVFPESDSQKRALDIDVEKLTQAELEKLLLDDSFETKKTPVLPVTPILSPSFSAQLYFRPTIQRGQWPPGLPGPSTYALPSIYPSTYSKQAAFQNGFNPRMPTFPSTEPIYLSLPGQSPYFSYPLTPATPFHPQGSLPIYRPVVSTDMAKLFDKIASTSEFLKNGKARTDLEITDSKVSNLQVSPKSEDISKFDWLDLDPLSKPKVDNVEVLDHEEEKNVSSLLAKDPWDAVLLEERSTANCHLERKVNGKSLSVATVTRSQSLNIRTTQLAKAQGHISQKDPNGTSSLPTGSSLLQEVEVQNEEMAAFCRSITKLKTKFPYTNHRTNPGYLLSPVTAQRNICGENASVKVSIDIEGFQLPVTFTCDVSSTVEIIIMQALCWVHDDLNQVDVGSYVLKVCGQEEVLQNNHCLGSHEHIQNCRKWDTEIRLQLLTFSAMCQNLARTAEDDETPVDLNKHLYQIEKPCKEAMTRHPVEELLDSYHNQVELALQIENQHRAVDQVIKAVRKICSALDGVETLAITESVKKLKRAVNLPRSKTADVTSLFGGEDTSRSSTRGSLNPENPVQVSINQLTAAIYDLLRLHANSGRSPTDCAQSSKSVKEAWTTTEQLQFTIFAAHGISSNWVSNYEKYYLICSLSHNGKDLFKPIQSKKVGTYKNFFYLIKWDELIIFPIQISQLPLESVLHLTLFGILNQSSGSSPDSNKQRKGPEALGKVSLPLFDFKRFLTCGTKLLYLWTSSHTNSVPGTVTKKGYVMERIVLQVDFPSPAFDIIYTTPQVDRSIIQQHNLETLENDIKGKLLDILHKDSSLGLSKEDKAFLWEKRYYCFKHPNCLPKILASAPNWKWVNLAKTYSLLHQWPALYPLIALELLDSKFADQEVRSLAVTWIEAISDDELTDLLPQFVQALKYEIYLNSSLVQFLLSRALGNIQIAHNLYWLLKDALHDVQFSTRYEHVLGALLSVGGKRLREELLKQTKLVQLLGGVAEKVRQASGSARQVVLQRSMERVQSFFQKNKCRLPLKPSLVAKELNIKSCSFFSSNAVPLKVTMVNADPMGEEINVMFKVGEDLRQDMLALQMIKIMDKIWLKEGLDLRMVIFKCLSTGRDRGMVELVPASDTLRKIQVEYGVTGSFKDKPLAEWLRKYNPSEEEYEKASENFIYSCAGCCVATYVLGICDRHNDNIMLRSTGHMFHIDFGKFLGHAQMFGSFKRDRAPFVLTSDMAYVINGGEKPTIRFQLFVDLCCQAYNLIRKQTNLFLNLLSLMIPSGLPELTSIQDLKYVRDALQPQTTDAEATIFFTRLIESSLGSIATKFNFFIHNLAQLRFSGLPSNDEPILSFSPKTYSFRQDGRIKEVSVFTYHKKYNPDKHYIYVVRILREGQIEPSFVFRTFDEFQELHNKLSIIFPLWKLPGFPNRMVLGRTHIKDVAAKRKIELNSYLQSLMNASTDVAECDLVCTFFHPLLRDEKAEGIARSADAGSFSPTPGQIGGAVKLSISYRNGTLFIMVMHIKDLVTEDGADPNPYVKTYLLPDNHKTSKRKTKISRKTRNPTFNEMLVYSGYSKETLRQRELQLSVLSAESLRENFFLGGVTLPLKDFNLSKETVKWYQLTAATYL

Assay [1] deals with glutamate-rich 3 (ERICH3), endogenous in SK-N-SH cells (human (endogenous in SK-N-SH)) (UniProt Q5RHP9). Put plainly: co-IP; Co-IP with ERICH3 antibody from SK-N-SH cells, control IgG; Western blot of the partners. A general note: In western blotting, separated proteins are transferred to a membrane and probed.
The target in assay [2] is mCherry-tagged ERICH3 isoform P-1 (human) (UniProt Q5RHP9). The assay is described as follows: co-IP; anti-mCherry IP from HEK293T cells overexpressing mCherry-tagged ERICH3 isoforms; Western blot of endogenous partners.
Assay [3] concerns the target T1, mCherry-tagged ERICH3 isoform P-3 (human) (UniProt Q5RHP9).
T1 sequence: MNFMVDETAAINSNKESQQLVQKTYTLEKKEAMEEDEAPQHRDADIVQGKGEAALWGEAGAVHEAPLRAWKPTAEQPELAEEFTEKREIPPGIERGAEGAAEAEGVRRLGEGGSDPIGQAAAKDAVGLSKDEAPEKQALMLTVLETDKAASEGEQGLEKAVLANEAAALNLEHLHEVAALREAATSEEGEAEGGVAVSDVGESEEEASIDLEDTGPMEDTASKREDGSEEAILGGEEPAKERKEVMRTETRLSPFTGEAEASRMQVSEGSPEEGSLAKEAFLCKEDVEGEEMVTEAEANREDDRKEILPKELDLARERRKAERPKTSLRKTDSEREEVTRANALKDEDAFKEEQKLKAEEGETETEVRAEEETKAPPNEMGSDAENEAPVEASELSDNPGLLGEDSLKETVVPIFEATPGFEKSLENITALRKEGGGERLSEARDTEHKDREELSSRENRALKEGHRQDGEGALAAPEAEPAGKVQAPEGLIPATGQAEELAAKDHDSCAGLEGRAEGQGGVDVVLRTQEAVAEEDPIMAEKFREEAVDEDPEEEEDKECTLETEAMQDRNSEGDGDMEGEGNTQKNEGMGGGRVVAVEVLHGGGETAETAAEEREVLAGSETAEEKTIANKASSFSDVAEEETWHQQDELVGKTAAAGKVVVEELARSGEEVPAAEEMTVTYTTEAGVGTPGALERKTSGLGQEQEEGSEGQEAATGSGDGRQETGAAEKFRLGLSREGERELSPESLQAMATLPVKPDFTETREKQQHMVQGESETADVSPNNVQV
Described as above.

Results are given in words; binding and its absence hold for the method and conditions named. Binding seen in cells or lysates may run through a third protein. Some binding calls cover weakened binding; strength is not graded here. For part of these data: Sequences can lack the tags named with a protein.

Turning to “adaptor related protein complex 2 subunit alpha 2 (AP2A2) (from UniProt O94973 1-939)”, the binding result was “binds” in assay [1], “binds” in assay [2] and “no binding” in assay [3].

For “clathrin heavy chain (CLTC) (from UniProt Q00610 1-1675)”, the binding result in assay [1] is listed as “binds”; in assay [2], “binds”; in assay [3] it was “no binding”.

Regarding “phosphatidylinositol-4-phosphate 3-kinase catalytic subunit type 2 alpha (PIK3C2A) (from UniProt O00443 1-1686)”, the binding entry in assay [1] is reported as “binds”; in assay [2], “binds”; in assay [3], “no binding”.
